Measurements as given in the BET-seq Pho4 binding data (Le et al. 2018).
This is one part of the list. The energies were worked out here from pooled read counts, against the library average; single values are noisy.

Molecular target: T1, Pho4 (S. cerevisiae) (UniProt P07270)
T1 sequence: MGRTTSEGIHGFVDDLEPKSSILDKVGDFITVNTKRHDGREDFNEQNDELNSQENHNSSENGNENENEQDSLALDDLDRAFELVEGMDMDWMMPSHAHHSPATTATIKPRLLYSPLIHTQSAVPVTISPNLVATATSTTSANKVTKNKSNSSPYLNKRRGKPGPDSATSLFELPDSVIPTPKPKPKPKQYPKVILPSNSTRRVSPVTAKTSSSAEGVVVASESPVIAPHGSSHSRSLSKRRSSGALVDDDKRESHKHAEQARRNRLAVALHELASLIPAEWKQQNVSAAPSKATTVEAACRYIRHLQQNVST
Experiment: relative binding free energy (BET-seq); higher = weaker binding
Conditions: reference: library average

| Sequence | relative binding free energy |
| --- | --- |
| TGAAGCACGTGCTTTG | -0.18 kcal/mol |
| GGTTGCACGTGCTATT | 0.04 kcal/mol |
| GTGGTCACGTGATGCA | 0.36 kcal/mol |
| GTAGACACGTGTAAGG | -0.04 kcal/mol |
| GGGAGCACGTGGTGAG | -0.13 kcal/mol |
| GGGCTCACGTGGAATA | 0.48 kcal/mol |
| TATTTCACGTGGAATG | 0.38 kcal/mol |
| AGGGGCACGTGCATAG | -0.28 kcal/mol |
| AGGGCCACGTGGGACG | -0.18 kcal/mol |
| GGTGGCACGTGTGCAC | -0.12 kcal/mol |
| TGTAGCACGTGAGCTA | 0.13 kcal/mol |
| CGGATCACGTGGTCGG | -0.02 kcal/mol |
| ATGGTCACGTGAATGT | 0.25 kcal/mol |
| TTGCGCACGTGGTAGG | -0.08 kcal/mol |
| GATTGCACGTGGTGCA | 0.06 kcal/mol |
| TTAATCACGTGTGATG | 0.36 kcal/mol |
| CGGTCCACGTGAGTGT | 0.15 kcal/mol |
| TGTGGCACGTGTGCCG | 0.02 kcal/mol |
| TGGAGCACGTGATTAT | 0.15 kcal/mol |
| TAATGCACGTGGATTA | -0.02 kcal/mol |
| GATTACACGTGTATAG | 0.14 kcal/mol |
| GTTGACACGTGTGAGT | 0.17 kcal/mol |
| GGATACACGTGAATGG | 0.28 kcal/mol |
| AGTTGCACGTGGGGGT | -0.16 kcal/mol |
| GGTTGCACGTGGTGCA | -0.05 kcal/mol |

| Sequence | relative binding free energy |
| --- | --- |
| AGTTCCACGTGAGGGT | 0.27 kcal/mol |
| CGGTTCACGTGGAGTA | 0.4 kcal/mol |
| CAGGTCACGTGAGGGA | 0.2 kcal/mol |
| ATTGCCACGTGGGTGA | -0.24 kcal/mol |
| GAGGCCACGTGGTATG | -0.18 kcal/mol |
| ATGGGCACGTGGGATA | -0.13 kcal/mol |
| TTTTACACGTGTCGTG | 0.11 kcal/mol |
| GTCTGCACGTGGCGGG | -0.14 kcal/mol |
| AGAGCCACGTGTTGTG | -0.14 kcal/mol |
| TTAGTCACGTGGGCCT | -0.04 kcal/mol |
| AAAGGCACGTGGCGAG | -0.08 kcal/mol |
| GGGGACACGTGGGGGC | -0.05 kcal/mol |
| TGAGCCACGTGTGGTA | 0.1 kcal/mol |
| TTGTGCACGTGGTACA | -0.18 kcal/mol |
| ATATACACGTGGGGGG | -0.07 kcal/mol |
| GAGGGCACGTGCGCGG | -0.2 kcal/mol |
| GTTTGCACGTGGGCGA | 0.02 kcal/mol |
| TTGATCACGTGGATAG | 0.14 kcal/mol |
| ACTTGCACGTGGGCTG | -0.18 kcal/mol |
| TGGGCCACGTGTGCAG | -0.17 kcal/mol |
| TTGGACACGTGTATTT | 0.19 kcal/mol |
| GTGGCCACGTGAGTTT | 0.31 kcal/mol |
| TGTGCCACGTGTAGGC | -0.1 kcal/mol |
| CAATGCACGTGTTATG | 0 kcal/mol |
| GTTTGCACGTGCAGCG | 0.11 kcal/mol |

| Sequence | relative binding free energy |
| --- | --- |
| CTGGGCACGTGTAGCG | 0.03 kcal/mol |
| TAGTTCACGTGTCTGT | 0.27 kcal/mol |
| GTAGTCACGTGTCCGG | 0.15 kcal/mol |
| GATAGCACGTGTAAGT | 0.11 kcal/mol |
| TTTAACACGTGATTTT | 0.12 kcal/mol |
| GTTACCACGTGTGTTG | -0.04 kcal/mol |
| TATTGCACGTGTACGG | 0.1 kcal/mol |
| ACTTGCACGTGTTATG | 0.02 kcal/mol |
| ATAGTCACGTGCGTTT | 0.21 kcal/mol |
| ATTGCCACGTGTGTGG | -0.03 kcal/mol |
| CTCGACACGTGGGTGT | -0.18 kcal/mol |
| ATGTTCACGTGCGTGA | 0.31 kcal/mol |
| GGGGGCACGTGAAAGC | 0.17 kcal/mol |
| TATTACACGTGGAGCG | 0.09 kcal/mol |
| AGCGTCACGTGGCAGG | -0.08 kcal/mol |
| ATTATCACGTGACGTG | 0.2 kcal/mol |
| GGCGGCACGTGTAGAA | 0.05 kcal/mol |
| GCTGTCACGTGGGTGA | -0.04 kcal/mol |
| TGGTGCACGTGTGGCC | -0.02 kcal/mol |
| TCCGGCACGTGGTATG | -0.24 kcal/mol |
| ATTGACACGTGGTTTT | -0.06 kcal/mol |
| TGGTTCACGTGTAACG | 0.24 kcal/mol |
| ATTTGCACGTGTATGT | -0.01 kcal/mol |
| TGAGTCACGTGCGTGC | 0.11 kcal/mol |
| ATTATCACGTGAGCGG | 0.34 kcal/mol |

| Sequence | relative binding free energy |
| --- | --- |
| TTAAGCACGTGAGGTG | 0.1 kcal/mol |
| CTATTCACGTGGCGGT | 0.24 kcal/mol |
| AGAGTCACGTGGCTTT | -0.01 kcal/mol |
| GTGAGCACGTGCGGGA | -0.06 kcal/mol |
| TTTGTCACGTGTGATT | 0.34 kcal/mol |
| GATAACACGTGAGGAG | 0.28 kcal/mol |
| AGGGCCACGTGTAGTG | 0 kcal/mol |
| AGTGTCACGTGTGCAA | -0.02 kcal/mol |
| ATTTACACGTGAGCGG | 0.13 kcal/mol |
| AGAATCACGTGAGGAT | 0.44 kcal/mol |
| GGGTGCACGTGGATGG | 0.05 kcal/mol |
| TCATGCACGTGGTTGA | -0.07 kcal/mol |
| GTTAACACGTGATGGC | 0.19 kcal/mol |
| TGCGGCACGTGAAGTA | 0.15 kcal/mol |
| CGAGGCACGTGATGTT | -0.03 kcal/mol |
| AGTGTCACGTGGATCT | 0.05 kcal/mol |
| TATTTCACGTGTCAGT | 0.29 kcal/mol |
| GTTATCACGTGCATGG | 0.16 kcal/mol |
| GTTAGCACGTGGCGGC | -0.11 kcal/mol |
| TAGTTCACGTGGAAGC | 0.48 kcal/mol |
| GATAACACGTGGGTAA | 0.05 kcal/mol |
| GTTTGCACGTGTTTTA | 0.08 kcal/mol |
| ATGCGCACGTGGGGCT | -0.24 kcal/mol |
| TTGTTCACGTGGGTTA | 0.1 kcal/mol |
| AGGTGCACGTGCCGGG | -0.18 kcal/mol |

| Sequence | relative binding free energy |
| --- | --- |
| TGGTTCACGTGGGATA | 0.18 kcal/mol |
| TGTATCACGTGTTGAT | 0.14 kcal/mol |
| GGACGCACGTGGGGAG | -0.14 kcal/mol |
| TAACTCACGTGTTATG | 0.26 kcal/mol |
| TTTGTCACGTGATACT | 0.17 kcal/mol |
| TCAAGCACGTGTGTAG | -0.11 kcal/mol |
| GAGTTCACGTGTTAGG | 0.39 kcal/mol |
| GAGTTCACGTGATTAT | 0.38 kcal/mol |
| CGCTTCACGTGGTGAG | 0.16 kcal/mol |
| TACTACACGTGTGGGG | 0.14 kcal/mol |
| ATCCTCACGTGTTGTG | 0.18 kcal/mol |
| AATATCACGTGGGCTG | 0.05 kcal/mol |
| GGTTCCACGTGGCAGT | 0.14 kcal/mol |
| GTGTTCACGTGGGATT | 0.21 kcal/mol |
| TTGTACACGTGTAGTA | -0.08 kcal/mol |
| GTTCGCACGTGGGGGT | -0.21 kcal/mol |
| GTGAGCACGTGGGAAG | -0.08 kcal/mol |
| TTTCGCACGTGGGCTA | -0.14 kcal/mol |
| TTTCACACGTGGTTGT | 0.17 kcal/mol |
| TTTGGCACGTGGATCT | -0.18 kcal/mol |
| GTTAGCACGTGGTGCG | -0.03 kcal/mol |
| GGAGGCACGTGAATTG | 0.15 kcal/mol |
| TCTGGCACGTGGGGTG | -0.26 kcal/mol |
| TTGTACACGTGGTTGG | 0.07 kcal/mol |
| TAAAACACGTGGGTAG | -0.22 kcal/mol |

| Sequence | relative binding free energy |
| --- | --- |
| TGGGACACGTGGTGCT | 0.04 kcal/mol |
| GGGACCACGTGGTGGA | -0.18 kcal/mol |
| TTAAACACGTGTATAG | 0.03 kcal/mol |
| GGTCTCACGTGGGGTA | 0.11 kcal/mol |
| GTCCTCACGTGGTAGT | 0.3 kcal/mol |
| TGAGGCACGTGGAGGG | -0.08 kcal/mol |
| GTGTACACGTGGTTAT | 0.12 kcal/mol |
| TTGTGCACGTGAGAAG | 0.34 kcal/mol |
| CTCGGCACGTGTGTGT | -0.19 kcal/mol |
| CGGGGCACGTGGTGTT | -0.16 kcal/mol |
| CCAGTCACGTGTGTTT | 0.24 kcal/mol |
| CTAGGCACGTGAGGAT | 0.2 kcal/mol |
| AGGTTCACGTGTTTTT | 0.26 kcal/mol |
| CATTGCACGTGTGGGC | 0.21 kcal/mol |
| GGTAACACGTGCAGTG | -0.04 kcal/mol |
| GTTTACACGTGTATTA | 0.15 kcal/mol |
| ACGCTCACGTGGTGTG | 0.04 kcal/mol |
| TTGTGCACGTGGACGG | -0.01 kcal/mol |
| TTAAGCACGTGCAATT | 0.14 kcal/mol |
| CTTGGCACGTGAGTTA | 0.11 kcal/mol |
| GGTAACACGTGGAATG | 0.16 kcal/mol |
